Laboratory results: ChEMBL document CHEMBL5308541, “MAIP: An Open-Source Tool to Enrich High-Throughput Screening Output and Identify Novel, Druglike Molecules with Antimalarial Activity” (ACS Med Chem Lett, 2023)
Among all 150,000 compounds or so, about 540 (0.36%) showed an effect of 50% or more. This is one part of the list.

What follows are compounds tested on Plasmodium falciparum (assay: Primary screen in NF54 nanoGlo assay, in single point, at 2uM, 72h; a lower Z score goes with more inhibition). Conditions: timepoint 72 hour.
Assay type: functional, Erythrocyte
In the case of `FC(F)(F)c1ccc([C@H](CNc2cc(N3CCOCC3)ncn2)N2CCOCC2)cc1`, the “% Inhibition” value is reported as 7% and the Z score is reported as -1.23.
For `CC(=O)N1CCO[C@H](C(=O)Nc2cnccc2N2CCN(C)CC2)C1`, the “% Inhibition” value was -7% and the Z score was 1.25.
With `Cc1c(C(=O)N2CCN(CC(C)C)C(=O)[C@@H]2C)n(C)c2c(C)cccc12` the “% Inhibition” value was 4% and the Z score was -0.81.
`O=C(NCCN1CC[C@H](O)C1)c1cc(-c2ccc(OC(F)(F)F)cc2)[nH]n1` was tested, and the “% Inhibition” value was 1% and the Z score was -0.2.
For `Cc1ccc(CNC(=O)NC(c2ccc(F)cc2)C2CCCO2)cn1` (configuration not stated), the “% Inhibition” value was -5% and the Z score was 0.83.
With `Cc1ccc(-c2nc(CC[C@H](C)N3CCCC3)n(CC(=O)O)n2)o1` the “% Inhibition” value was 0% and the Z score was -0.09.
With `COc1cc(CNCCCN2CCCC2=O)ccc1OC[C@@H](O)CN(C)C1CCCCC1` the “% Inhibition” value was -2% and the Z score was 0.37.
For `CCCc1nc(N2CC[C@@]3(CCCN(C)C3=O)C2)no1`, the “% Inhibition” value was 2% and the Z score was -0.43.
In the case of `CN1CCN(C[C@H]2CCCN(CC(C)(C)N3CCOCC3)C2)CC1`, the “% Inhibition” value is reported as -20% and the Z score is reported as 3.47.
In the case of `COc1ccc2occ(C(=O)N(C[C@H](C)C#N)C3CC3)c2c1`, the “% Inhibition” value is reported as 1% and the Z score is reported as -0.09.
In the case of `COCCN1CCN(CC(O)CN2CCc3ccccc3C2)CC1C` (configuration not stated), the “% Inhibition” value is reported as -1% and the Z score is reported as 0.15.
In the case of `CCN(C(=O)c1cc2ccc(OC)cc2[nH]1)C1CCN(C(C)c2ccccc2)C1` (configuration not stated), the “% Inhibition” value is reported as 6% and the Z score is reported as -0.98.
For `Cc1cnccc1NCCNC(=O)c1nc(-c2ccccc2)[nH]c1C`, the “% Inhibition” value was 12% and the Z score was -2.67.
In the case of `O=C(c1cc(O)c2cccc(F)c2n1)N1CCC(N2CCN(CCO)CC2)CC1`, the “% Inhibition” value is reported as -1% and the Z score is reported as 0.15.
In the case of `CCCC(=O)c1cn(CC(=O)N2C[C@@H]3CCCN3C(=O)[C@@H]2C)c2ccccc12`, the “% Inhibition” value is reported as 0% and the Z score is reported as 0.
`Cc1cnn([C@H]2CCCNC2)c1C(=O)NC1CCC(N2CCCCC2)CC1` (some centres not stated) was tested, and the “% Inhibition” value was -5% and the Z score was 0.81.
For `CN1CCN(c2ccc(CNC(=O)C3CCN(c4nccnc4Oc4ccccc4)CC3)cc2)CC1`, the “% Inhibition” value was -4% and the Z score was 0.62.
With `CN1CCC(N2CCC(NCc3cccc4nsnc34)CC2)CC1` the “% Inhibition” value was 14% and the Z score was -2.08.
With `Cc1cc(NCC(=O)NC(C)C)c2cc(OC(F)(F)F)ccc2n1` the “% Inhibition” value was -11% and the Z score was 1.9.
`Cn1cccc1C(=O)N1CCC(CN(CCN2CCCCC2)C2CCOCC2)CC1` was tested, and the “% Inhibition” value was -5% and the Z score was 0.79.
With `COc1ccnc(NCCCc2nc(-c3ccncc3)cs2)n1` the “% Inhibition” value was 69% and the Z score was -13.68.
For `Cc1cccc(Cl)c1S(=O)(=O)NC[C@@H](C(C)C)N1CCCC1`, the “% Inhibition” value was -2% and the Z score was 0.33.
`COc1ccc(F)c2[nH]c(C(=O)NCCCCN3CCCC[C@@H]3C)cc12` was tested, and the “% Inhibition” value was -11% and the Z score was 2.28.
For `c1ccc(C2COCC3CN(Cc4ccc5[nH]ccc5c4)CCN32)cc1` (configuration not stated), the “% Inhibition” value was -2% and the Z score was 0.53.
For `NC(=O)[C@H]1CCCN(C2CCN(c3cccc(-c4cc[nH]n4)c3)CC2)C1`, the “% Inhibition” value was -9% and the Z score was 1.58.
In the case of `CC(=O)N1CC2CN(c3ncnc4[nH]ccc34)CC2(CCc2ccccc2)C1` (configuration not stated), the “% Inhibition” value is reported as -4% and the Z score is reported as 0.65.
`O=C(Cc1ccc(F)cc1F)N1CCC(Oc2cnsn2)CC1` was tested, and the “% Inhibition” value was -7% and the Z score was 1.48.
`COc1ccc2c(c1)c(CN1CCC(CCc3noc(C4CC4)n3)CC1)cn2C` was tested, and the “% Inhibition” value was -11% and the Z score was 1.89.
With `Cc1occc1-c1cc(NC(=O)N2CC[C@H](CN3CCCC3)C2)no1` the “% Inhibition” value was 4% and the Z score was -0.71.
With `Cc1cc(Nc2ccc(F)c(F)c2)n2nc(-c3ccccc3)c(C)c2n1` the “% Inhibition” value was -6% and the Z score was 0.98.
`N#CC1(c2nc(-c3sc4ccccc4c3Cl)no2)CCOCC1` was tested, and the “% Inhibition” value was 14% and the Z score was -2.78.
With `COC(=O)c1cn(CCNc2ccnc3cc(Cl)ccc23)cc2c(O)nnc1-2` the “% Inhibition” value was 97% and the Z score was -19.19.
With `CCOc1ccc2nc(CN(CC)CC3CCN(C4CCN(C)CC4)CC3)ccc2c1` the “% Inhibition” value was 80% and the Z score was -13.89.
In the case of `Cc1cc(S(=O)(=O)N2CCC[C@H](c3nc(C)c(C)[nH]3)C2)c(C)o1`, the “% Inhibition” value is reported as -11% and the Z score is reported as 1.95.
For `Cc1nnc(NS(=O)(=O)c2ccc3c(c2)CCCC3=O)o1`, the “% Inhibition” value was -1% and the Z score was 0.25.
`Cn1cc(-c2ccccc2CNc2cc(NCC3CC3)ncn2)cn1` was tested, and the “% Inhibition” value was -6% and the Z score was 1.23.
For `CC(NC(=O)CN1CCCC(CN2CCCCC2C)C1)C(=O)N1CCCCC1` (configuration not stated), the “% Inhibition” value was 7% and the Z score was -0.99.
`O=C(c1cccc(-c2ncc[nH]2)c1)N1CCN(CCN2CCOCC2)CC1` was tested, and the “% Inhibition” value was -13% and the Z score was 2.48.
In the case of `O=C(Nc1ccc(Oc2ccccc2)nc1)C1CCN(Cc2cccc3cnccc23)CC1`, the “% Inhibition” value is reported as -6% and the Z score is reported as 1.17.
In the case of `Cc1cc(=O)[nH]c(-n2nc(C)cc2NC(=O)[C@H](C)n2nc3c(cc2=O)CCC3)n1`, the “% Inhibition” value is reported as -7% and the Z score is reported as 1.4.
For `CCN1CCC[C@@H]1CNC(=O)c1ccc(-c2cc(C)c3nccn3c2)cc1`, the “% Inhibition” value was -2% and the Z score was 0.29.
For `O=C(NCc1csc(-c2cnccn2)n1)c1cc(-c2ccccc2O)[nH]n1`, the “% Inhibition” value was -5% and the Z score was 0.76.
`Cc1nc(C)n(C[C@H]2CCCN(C(=O)c3cnn4ccncc34)C2)n1` was tested, and the “% Inhibition” value was -9% and the Z score was 1.58.
With `CCOc1cc(N2CC[C@H](N3CCN(C(C)C)CC3)C2)nc(C)n1` the “% Inhibition” value was 13% and the Z score was -2.27.
For `Cc1noc(-c2cccnc2N2CC[C@H](NC(=O)c3cc4ccccc4[nH]3)C2)n1`, the “% Inhibition” value was -7% and the Z score was 1.29.
`Cc1cccnc1NCCNc1nccc(-c2ccncc2)n1` was tested, and the “% Inhibition” value was -1% and the Z score was 0.15.
`COc1cncc(-c2ccc(C(=O)NC3CNCC3O)cc2)c1` (configuration not stated) was tested, and the “% Inhibition” value was 1% and the Z score was -0.09.
`c1ccc(CN2CCC(CCNC[C@@H]3CCCN4CCCC[C@H]34)CC2)cc1` was tested, and the “% Inhibition” value was 57% and the Z score was -10.03.
In the case of `Nc1ccnc2c(-c3cccc(C(=O)NCCN4CCCCC4)c3)cccc12`, the “% Inhibition” value is reported as 14% and the Z score is reported as -2.39.
For `O=C(N1CC[C@H](OC(F)F)C1)C1(O)CCc2cc(Br)ccc2C1` (some centres not stated), the “% Inhibition” value was -16% and the Z score was 2.43.
With `CCNC(=O)c1[nH]nc(-c2ccc(OC)cc2O)c1-c1ccc(-c2ccccc2)cc1` the “% Inhibition” value was -7% and the Z score was 1.07.
For `O=S1(=O)CCCN1c1cc(NC2CCN(CCN3CCOCC3)CC2)ccc1F`, the “% Inhibition” value was -4% and the Z score was 0.97.
For `c1ccc2c(NCC(C3CCOC3)N3CCOCC3)nc(-c3ccsc3)nc2c1` (configuration not stated), the “% Inhibition” value was -10% and the Z score was 1.51.
With `O=C(N[C@@H]1CCCNC1)c1ccnc(OCc2ccccc2)c1` the “% Inhibition” value was -6% and the Z score was 1.02.
In the case of `CN(Cc1cc(-c2ccncc2)no1)c1ncc(F)c(N2CCCC2)n1`, the “% Inhibition” value is reported as -2% and the Z score is reported as 0.4.
For `O=C(CNS(=O)(=O)c1ccc2c(c1)COC2)Nc1ccc2[nH]ccc2c1`, the “% Inhibition” value was -11% and the Z score was 2.43.
With `Cc1noc(C)c1COc1ccc(CC(=O)Oc2ccc(Cl)c3cccnc23)cc1` the “% Inhibition” value was -3% and the Z score was 0.48.
`c1ccc(-c2nc(NCc3ccnc(O[C@H]4CCOC4)c3)no2)cc1` was tested, and the “% Inhibition” value was -19% and the Z score was 3.32.
For `COc1ccc2cc([C@H](C)NC(=O)NC3(CO)CCCC3)ccc2c1`, the “% Inhibition” value was -10% and the Z score was 1.64.
In the case of `O=C(CN1CC2(CCCC2)CC1=O)N1CCOc2ccc(Cl)cc2C1`, the “% Inhibition” value is reported as -5% and the Z score is reported as 0.78.
In the case of `COCC[C@H](NCC(=O)N1CCC(C(=O)N2CCCCCC2)CC1)C(C)(C)C`, the “% Inhibition” value is reported as 1% and the Z score is reported as -0.13.
For `CO[C@H]1C[C@H]2CC[C@@H](C1)N2C(=O)CCCn1nc(C)cc1C`, the “% Inhibition” value was -2% and the Z score was 0.34.
`Cc1ccc2[nH]c(CN[C@@H]3CN(C)C[C@H]3c3cncn3C)cc2c1C` was tested, and the “% Inhibition” value was 15% and the Z score was -2.3.
For `COc1cccc([C@@H]2CCCN2c2nc(-c3ccncc3)cnc2N)c1`, the “% Inhibition” value was -4% and the Z score was 0.61.
`Nc1nc2c(c(NCCc3cn[nH]c3)n1)CCN(C1CCOCC1)CC2` was tested, and the “% Inhibition” value was 6% and the Z score was -1.04.
For `Cc1cccc(N2CCC(NCc3cc(C)cc(CN4CCN(C)CC4)c3C)CC2)c1`, the “% Inhibition” value was 35% and the Z score was -7.04.
`CN1CCN(C2(CNC(=O)C3(N4CCCC4)CCCC3)CCCCC2)CC1` was tested, and the “% Inhibition” value was 16% and the Z score was -3.35.
With `CN1CCN(C(=O)c2ccc(NCc3cccc4[nH]ccc34)cc2)CC1` the “% Inhibition” value was -4% and the Z score was 0.59.
`CN1CCN(c2ncc(F)c(Nc3ccc(O)cc3)n2)CC1` was tested, and the “% Inhibition” value was -14% and the Z score was 2.08.
With `O=C(N[C@H]1CCCN(C2CCCCC2)C1=O)c1ccnc2ccccc12` the “% Inhibition” value was 3% and the Z score was -0.48.
For `CC(C)NS(=O)(=O)c1cc(NCc2cccc(-c3ccco3)c2)cc(C(=O)N[C@H]2CCCCNC2=O)c1`, the “% Inhibition” value was -20% and the Z score was 4.34.
`CC[C@@H](Nc1cc(OC)nc(COC)n1)C(=O)O` was tested, and the “% Inhibition” value was -7% and the Z score was 1.02.
For `COc1cc2nc(C)sc2cc1NC(=O)N[C@H]1CCCCNC1=O`, the “% Inhibition” value was -13% and the Z score was 2.17.
For `Fc1ccc(-c2csc(NCCCN3CCN(c4ncccn4)CC3)n2)cc1`, the “% Inhibition” value was -2% and the Z score was 0.36.
In the case of `CO[C@H]1C[C@@H](CNc2nc3cc(F)ccc3o2)N(c2cc(C)ncn2)C1`, the “% Inhibition” value is reported as -2% and the Z score is reported as 0.34.
`O=C(NC1CCNCC1O)c1cccc(-c2cc(C(F)(F)F)ccn2)c1` (configuration not stated) was tested, and the “% Inhibition” value was -3% and the Z score was 0.44.
`Cc1nc(N[C@H]2CCN(C(=O)OC(C)(C)C)C2)cc(-c2ccncc2)n1` was tested, and the “% Inhibition” value was -5% and the Z score was 1.04.
`Cc1cc(N2CCCN(c3noc(-c4ccccc4)n3)CC2)ccn1` was tested, and the “% Inhibition” value was 3% and the Z score was -0.5.
With `c1ccc(CN2CCN(CCN3CCc4[nH]cnc4C3)CC2)cc1` the “% Inhibition” value was -4% and the Z score was 0.73.
With `CCN(c1ccc2[nH]ccc2c1)S(=O)(=O)c1cnn2c1OCCC2` the “% Inhibition” value was -15% and the Z score was 2.59.
With `O[C@H]1CCCN(CCCNc2ncccc2-c2ncon2)C1` the “% Inhibition” value was -1% and the Z score was 0.24.
